Measurements taken from PubChem BioAssay AID1645887 (National Center for Advancing Translational Sciences (NCATS), 2021).
Where “and” joins values, the source holds several entries; their conditions need not be identical. Equal entries are not always repeated. The campaign covered roughly 16,000 compounds. About 40 (0.2%) were called active. Roughly 1% stayed inconclusive and do not appear here. The call rests on the fitted dose curve; in most records, active means well fitted activation curve with a large enough effect; inconclusive means small, poorly fitted or top-dose-only effect, or another doubt; inactive means no such curve, though single readings can be large or run the other way. This is one part of the list.

target: Rap guanine nucleotide exchange factor 4 (Homo sapiens) (UniProt Q8WZA2); test: Validation qHTS for agonist of cAMP-regulated guanine nucleotide exchange factor 4 (EPAC2); details: EPAC2 Rap1B BODIPY-GDP exchange, fluorescence; activation: hits give high values;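 further: exchange makes BODIPY-GDP fluorescence drop when released from Rap1B; series mostly up to about 150 µM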
Outline: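 Signal normalized against 6.5 mM cAMP as agonist control. Mix of EPAC2 (100 nM), RAP1B-BODIPY-GDP (250 nM) and GDP (50 uM) was read kinetically at 480/540 nm, every 5 min over 30 min, after 5 min room-temperature incubation with compound.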
On the % scale 0 is the no-effect control and ±100 the full control effect.

Sequence of UniProt Q8WZA2 (Q8WZA2 whole entry, looked up): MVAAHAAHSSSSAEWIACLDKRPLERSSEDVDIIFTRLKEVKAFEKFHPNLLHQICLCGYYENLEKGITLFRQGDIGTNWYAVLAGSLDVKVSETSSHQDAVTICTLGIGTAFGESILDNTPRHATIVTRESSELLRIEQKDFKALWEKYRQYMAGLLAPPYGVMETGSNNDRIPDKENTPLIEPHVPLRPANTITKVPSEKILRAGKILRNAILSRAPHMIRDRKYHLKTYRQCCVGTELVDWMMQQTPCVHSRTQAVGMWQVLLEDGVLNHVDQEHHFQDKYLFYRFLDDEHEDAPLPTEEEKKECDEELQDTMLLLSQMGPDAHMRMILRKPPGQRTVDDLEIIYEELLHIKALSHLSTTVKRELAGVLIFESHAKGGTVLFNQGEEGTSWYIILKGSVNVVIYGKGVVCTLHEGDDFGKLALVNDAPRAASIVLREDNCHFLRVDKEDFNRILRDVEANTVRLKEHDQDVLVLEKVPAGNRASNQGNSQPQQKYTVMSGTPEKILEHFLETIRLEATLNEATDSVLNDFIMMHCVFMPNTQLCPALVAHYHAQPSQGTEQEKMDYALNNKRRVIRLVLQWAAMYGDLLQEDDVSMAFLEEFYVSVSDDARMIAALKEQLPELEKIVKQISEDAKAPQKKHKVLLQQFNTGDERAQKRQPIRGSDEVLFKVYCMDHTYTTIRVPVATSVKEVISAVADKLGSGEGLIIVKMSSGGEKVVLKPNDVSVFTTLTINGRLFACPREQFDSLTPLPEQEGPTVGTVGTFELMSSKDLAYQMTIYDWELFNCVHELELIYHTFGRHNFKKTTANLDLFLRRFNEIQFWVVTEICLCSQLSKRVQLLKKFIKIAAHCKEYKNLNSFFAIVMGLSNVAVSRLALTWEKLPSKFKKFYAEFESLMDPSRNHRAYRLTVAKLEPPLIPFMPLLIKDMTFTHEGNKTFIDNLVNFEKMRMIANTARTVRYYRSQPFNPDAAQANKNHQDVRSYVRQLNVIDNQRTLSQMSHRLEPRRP

activation, inactive:
CC(=O)N1CCC2(CC1)CCN(c1cccc(-c3ccccc3)c1)CC2 7.44%, NC(=O)C(=O)O -5.52%, O=c1c(-c2ccc(F)cc2)nc2cnc(Oc3cccc(Cl)c3)nc2n1C[C@H]1CCCO1 10.2%, CN(C)C(=O)c1ccc(-c2nc(Nc3ccncc3)c3ccccc3n2)cc1 -3.3%, Cc1nc(NCc2c(F)cccc2F)sc1-c1ccn(CCN2CCOCC2)n1 -13.4%, CC(C)C(NS(C)(=O)=O)c1nnc2n1CCN(Cc1ccc(Cl)cc1)CC2 (configuration not stated) -24.3%, CN(C)c1ncc2nc(CCc3ccccc3)c(=O)n(Cc3cccs3)c2n1 14.8%, CC1CC[C@@]2(C(=O)O)CCC3(C)C(=CCC4[C@]5(C)CC(O)C(O)[C@](C)(CO)C5C(O)C[C@@]43C)C2C1C (some centres not stated) -57.9%, O=C(c1cccc(F)c1)N1CCC2(CCCN(c3ccncc3)C2)CC1 9.07%, COc1cc(OC)c(OC)cc1CN1CCCC(c2nc(C)ncc2-c2ccc(F)cc2)C1 (configuration not stated) -4.08%, O=C(C[n+]1csc2ccccc21)c1cccc([N+](=O)[O-])c1 -5.24%, O=C(c1ccncc1)N1CCC[C@@]2(CCN(c3ccccn3)C2)C1 -0.98%, O=C(NCCc1nnc2n1CCN(Cc1cc3ccccc3o1)CC2)c1ccoc1 -25.3%, OC(Br)C(O)C(O)N1CCCc2ccccc21 (configuration not stated) -9.29%, C=CCc1ccc(OC(=O)c2ccccc2)c(OC)c1 1.58%, O=S1(=O)CCO[C@H]2Cc3ccccc3[C@H]2N1Cc1ccccc1 -27.7%, OC[C@H]1O[C@@H](n2cnc3c(=S)nc[nH]c32)[C@H](O)[C@@H]1O -8.98%, COc1cc(-c2ccc(N=Nc3ccc4c(S(=O)(=O)O)cc(S(=O)(=O)O)c(N)c4c3O)c(OC)c2)ccc1N=Nc1ccc2c(S(=O)(=O)O)cc(S(=O)(=O)O)c(N)c2c1O -15.2% and -10.5%, CCN(CC)CCOC(=O)C(c1ccccc1)C1CCCCC1 (configuration not stated) -1.91%, CN(C)c1cc2c(Nc3ccc4c(cnn4Cc4ccccc4)c3)ncnc2cn1 1.6%, COc1ccccc1-c1ccnc(-n2ncc(C(=O)NCc3cccnc3)c2C)n1 8.95%, CN(C)C(=O)c1ccc(-c2cncnc2-n2ccnc2)cc1 -14%, Cc1nc2cnc(Oc3ccccc3)nc2n(CCC#N)c1=O -2.69%, COCCN1CCN(C(=O)c2cnn(-c3nccc(-c4ccco4)n3)c2C2CC2)CC1 -4.01%, COCC1=C(C(=O)OC(C)OC(=O)OC(C)C)N2C(=O)[C@@H](NC(=O)/C(=N\OC)c3csc(N)n3)[C@H]2SC1 (some centres not stated) -9.12% and -2.29%, COc1cc(=O)n2c(c1C(=O)NCc1ccc3c(c1)OCO3)CCN(C(=O)c1ccc(C)cc1)CC2 -9.24%, O=C(CCc1nc2ccccc2s1)N1CCOc2ccc(CN3CCc4sccc4C3)cc2C1 -8.66%, CO[C@H]1[C@H](NC(=O)c2ccco2)c2ccccc2C12CCN(Cc1cc(Cl)ccc1O)CC2 4.23%, COc1ccc(-c2nc3cnc(Nc4cccc(OC)c4)nc3n(CCC#N)c2=O)cc1 -13.7%, N#CC(=C(/N)Sc1ccccc1N)/C(C#N)=C(/N)Sc1ccccc1N -17.7%, COc1cc([C@@H]2c3cc4c(cc3[C@H](O)C3COC(=O)[C@@H]32)OCO4)cc(OC)c1OC (some centres not stated) -45.8%, CC(C)(C)c1ccc(CN2CCN(C(c3ccccc3)c3ccc(Cl)cc3)CC2)cc1 (configuration not stated) -8.25%, COC(=O)[C@@H]1CCCN1Cc1ccc2c(c1)CN(Cc1cccc(Cl)c1)CCO2 3.23%, CCCN1CCC(=O)N([C@H](COc2ccccc2)Cc2ccccc2)CC1 -1.32%, NS(=O)(=O)c1cccc2c1c([N+](=O)[O-])cc1nc(O)c(O)nc12 -21.1% and -17%, O=C(c1ccncc1)N1CCC[C@@]2(CCN(c3cccc(-c4ccccc4)c3)C2)C1 -7.28%, N#Cc1cccc(-c2nccc(NCc3cccnc3)n2)c1 -7.06%, COc1cccc2c1CCC1=CC(=O)CC[C@@]12C -9.3%, C=CC(=O)c1ccc2ccccc2c1 -3.99%, C=CCOc1ccc(CC(=O)O)cc1Cl 14.9%, O=[N+]([O-])c1ccc(Cn2cc(-c3cccc(C(F)(F)F)c3)nn2)cc1 -16.8%, COC(=O)C1=C(C)NC(C)=C(C(=O)O[C@H]2CCN(Cc3ccccc3)C2)[C@H]1c1cccc([N+](=O)[O-])c1 10.6%, Cc1c(C(=O)NCCc2cccnc2)cnn1-c1ncc2c(n1)-c1ccccc1CC2 -14.5%, O=C(NCc1nnc2n1CCN(C(=O)/C=C/c1ccccc1)CC2)c1cccc(F)c1 -12%, NC(N)=NCc1cccc(I)c1 -3.03% and 7.83%, CCCCC(CC)CN1CN(CC(CC)CCCC)CC(C)(N)C1 (configuration not stated) -8.76% and -19.9%, Cc1cccc(CN2CCc3nnc(C(C)NC(=O)C4CCOCC4)n3CC2)c1 (configuration not stated) -11.5%, COc1cc2c(cc1OC)C(=O)C(CC1CCN(Cc3ccccc3)CC1)C2 (configuration not stated) 9.64%, CC(=O)OCC(=O)[C@@]1(O)CCC2C3CC(C)C4=CC(=O)C=CC4(C)C3C(O)CC21C (some centres not stated) -21.4%, CCCCCC[C@@H](CCC)C(=O)O -8.38%, COCC(=O)Nc1cc(C(=O)N2CCN(c3ccccc3)C(=O)C2)cc2nc(-c3ccccc3)n(C)c12 -13%, C[C@H]1CCC(=O)N([C@H](CSc2ccccc2)Cc2ccccc2)CC1 -16%, O=C(Nc1cccc(F)c1)N1CC2(CCN(C(=O)c3ccco3)CC2)C1 -5.74%, Nc1ncnc2nc(Cl)[nH]c12 -7.47%, COC(C)=O 11.2%, COc1cccc(OC)c1CN1CCC2(CCC(CNC(=O)c3ccccc3)O2)CC1 (configuration not stated) -3.17%, N#C/C(=C1\SCC(c2ccccc2Cl)S1)n1ccnc1 (configuration not stated) -11.9%, C[N+]1(C)CCCC(OC(=O)C(O)(c2ccccc2)c2ccccc2)C1 (configuration not stated) -9.1% and -1.8%, Cc1cnc(-n2ncc(C(=O)N(C)CC3COCCO3)c2C2CC2)nc1-c1cccs1 (configuration not stated) -5.84%, CN1CCN2c3ccccc3Cc3ccccc3[C@@H]2C1 -8.6%, CCCCCCCCCCCCC/C=C/[C@@H](O)[C@H](CO)NC(=O)CCCCCCCCCCCCCCC -5.54%, CC1CC[C@]2(CO)CC[C@]3(C)C(=CCC4[C@@]5(C)CCC(O)C(C)(C)C5CC[C@@]43C)C2C1C (some centres not stated) 6.91%, CCC1CN(CC(=O)NCc2n[nH]c3c2CCCCC3)Cc2cc(OC)ccc2O1 (configuration not stated) -6.84%, O=C(CCCN1CCC(O)(c2ccc(Br)cc2)CC1)c1ccc(F)cc1 3.56%, CNCC[C@H](Oc1cccc2ccccc12)c1cccs1 -6.77%, CC(=O)ON(C(C)=O)S(=O)(=O)c1ccc(Cl)cc1 -17.8%, COc1cccc(Nc2ncc3nc(CCc4ccccc4)c(=O)n(Cc4cccs4)c3n2)c1 2.04%, CN(C)Cc1ccccc1-c1cc(N(C)Cc2ccco2)ncn1 -4.14%, COc1cccc(-c2ccnc(-n3ncc(C(=O)NCC(C)(C)CN(C)C)c3C)n2)c1 -9.64%, CC(Oc1ccccc1)C(=O)NCC1Cc2cc(F)cc(-c3ccccn3)c2O1 (configuration not stated) 6.61%, c1ccc(-c2ccc(N3CC4(CCNCC4)C3)cc2)cc1 9.91%, OCCCNc1ccccc1 -9.45%, CC(=O)c1ccc2c(c1)N(CCCN1CCC(CCO)CC1)c1ccccc1S2 -16.7%, COc1cccc(CN(CC(=O)NCc2ccccc2)S(=O)(=O)CCl)c1 -20.8%, O=C(NCC1(N2CCOCC2)CCCCC1)c1cnn(-c2nccc(-c3cccs3)n2)c1C1CC1 -2.82%, Cc1[nH]c2c(F)cccc2c1CC(=O)NCCN1Cc2ccccc2OC(C)C1 (configuration not stated) -2.07%, CO[C@@]1(NC(=O)Cc2cccs2)C(=O)N2C(C(=O)O)=C(COC(N)=O)CS[C@@H]21 5.02% and -7.08%, O=c1c(-c2ccc(F)cc2)nc2cnc(Oc3ccccc3)nc2n1C[C@H]1CCCO1 8.71%, CS(=O)(=O)N1CCC2(CCN(Cc3ccncc3)CC2)CC1 -10.9%, NC1(C(=O)O)CCC1 -11.1%, CC(Cc1ccccc1)(NC(=O)CN)c1ccccc1 (configuration not stated) -41.7%, O=c1cnc2cnc(Oc3ccccc3)nc2n1Cc1ccc(F)cc1 2.4%, C[C@@H](CSc1ccccc1)CN1CC[C@H](NC(=O)OCc2ccccc2)CCC1=O -28%, COCCNc1ncnc2ccc(-c3cccnc3)cc12 -19.7%, COc1cccc(-c2nc3cc4c(cc3cc2CN(C(=O)c2cccs2)C2CC2)CCC4)c1OC -23.5%, COc1ccc(Cc2cnc(N)nc2N)cc1OC -9.49%, COc1ccccc1CNc1ncncc1-c1ccccc1CN(C)C -6.39%
